# Reference: the supplement of paper PMC3334620
# The full ranking holds about 33,000 sequences; the median of “E-score (-0.5 to 0.5)” is about -0.056, and the highest 2% start at about 0.38. The list shows a part of the results.
# Target: Stb4 (UniProt P50104)
# Test: PBM E-score (8-mer binding enrichment) (E-score (-0.5 to 0.5)); higher = stronger / more preferred TF binding; most listed sequences are background and not binding sites
# Conditions: protein concentration: 200 nM; construct: GST-DNA-binding domain
# Method in brief: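 For each ungapped eight-base word taken together with its reverse complement, the Universal PBM Analysis Suite assigned an E-score. Binding data came from GST-tagged yeast transcription factors, applied at about 100-200 nM, on universal all-10-mer Agilent arrays made double-stranded by primer extension. Fluorescent anti-GST marked bound protein, and scans were normalised with masliner.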
row,Sequence,PBM E-score
1,ACTTTCTG,0.127
2,CGCTTATA,0.00226
3,CGTCTTTC,0.0162
4,CTGTGTCA,-0.0509
5,AGATGCCC,-0.0342
6,AAGCAAAG,-0.16
7,GCAGTAGA,-0.253
8,AGGCTCCC,-0.0221
9,CAGATCTC,-0.0122
10,ATTTAGGC,-0.128
11,AGCACACC,-0.0546
12,AACCAAAC,-0.106
13,ACCAAAAA,0.00726
14,GAGTGAAA,-0.0195
15,GACGTCTC,-0.215
16,ATCGTGCC,0.162
17,TCCAACCA,-0.117
18,ATCTAGGG,-0.336
19,GCCGAGGC,0.436
20,ATTTGGGC,-0.166
21,CGTAGTTC,-0.0215
22,GGTTAAAC,0.0999
23,AGCGAGAT,-0.00096
24,CGAGCACG,0.183
25,GCAAACCA,-0.187

row,Sequence,PBM E-score
1,CTTAAGGC,-0.0873
2,ATCGCTTC,0.0204
3,ACCCCGGT,0.135
4,ATCCTAGG,-0.0251
5,CCTACAGA,-0.172
6,AATGGGGT,-0.142
7,CTGGAGCC,-0.0101
8,GAGCGTAC,-0.091
9,ATTGCCAC,-0.182
10,AGCGATTA,-0.0466
11,GAACGTTC,0.0157
12,AGCCGAAG,0.391
13,CAGGACCA,-0.103
14,ATCCATGA,-0.144
15,CCGTGGCC,0.124
16,CTGAAAAG,-0.0916
17,CTGAGCAA,-0.195
18,CCTTGCAC,-0.0446
19,CATGCCTC,0.028
20,AGCCTTCG,0.0677
21,CATGCTCA,-0.152
22,CTAGCGGC,-0.0333
23,GTAGCTAA,-0.0565
24,CAGGCAGA,-0.0815
25,AGAGGGTG,-0.141

row,Sequence,PBM E-score
1,GCCGCGTA,0.141
2,AACTGGTC,0.0748
3,AGTAGGCC,-0.209
4,ATGCGCAA,-0.0689
5,ATTATCCC,0.0679
6,ACCAGCTA,-0.216
7,ACTGCCCA,-0.178
8,CGTGAAAG,-0.0887
9,CCATAGGG,-0.157
10,CTAAGTGC,-0.0993
11,TGCAAGCA,-0.123
12,CGTCATTC,-0.00028
13,AGTCGTCG,-0.00728
14,AGATGATC,0.0878
15,GTCTGCGA,-0.324
16,GCCTCAAA,0.0154
17,AACCAAGG,-0.134
18,AAAGGCGT,-0.0826
19,CTATGCCA,-0.291
20,GCTAAACA,-0.0519
21,CTGCAGGC,-0.0808
22,CAACCACG,-0.132
23,GGTTATAA,0.197
24,CGAGGATA,0.0376
25,AAGCCTAT,-0.162

row,Sequence,PBM E-score
1,GAAGCGAC,-0.0222
2,ATCGTGGA,-0.0724
3,AACTTGAA,0.0409
4,CTTTCTGA,-0.25
5,AAATCACC,0.103
6,AATCCGCT,0.0362
7,GCACAGGA,-0.033
8,GTCAAAGA,-0.142
9,CCCTGCGA,-0.258
10,CGTCGCAA,-0.124
11,CGTCGGCA,0.38
12,CGGCGTGA,0.111
13,CCTACCAA,-0.0462
14,AGGGTGCA,-0.141
15,CTCGGTTC,0.361
16,AAGTATTC,0.0153
17,AGAGTGCT,-0.114
18,AACGCCTT,0.0897
19,CAGCTCAA,-0.109
20,ATTTGGCC,-0.0493
21,CGGCGTTA,0.198
22,ATCATAAT,-0.124
23,GGATATAC,0.26
24,TACGTAGA,-0.0695
25,ACAGCTCA,-0.338

row,Sequence,PBM E-score
1,CATTCCGC,0.175
2,ATAGACAG,-0.124
3,GATAGACC,0.00568
4,CACCAGGC,-0.141
5,ATAAAAAC,-0.00099
6,CACCTAAG,-0.218
7,TATAAGGA,0.00377
8,TAAGTAGA,-0.103
9,ATTGAGCC,-0.0721
10,CAGTTTGC,-0.0669
11,CATAAAGG,-0.055
12,CCTCCTAA,-0.203
13,CAGTCTCC,0.071
14,ATTCACGC,-0.17
15,ATGATGCC,0.036
16,AACCGGGC,0.178
17,GAAGCCCA,-0.1
18,GATGTACC,-0.0638
19,GACTACGA,-0.124
20,AGCTGTAA,-0.361
21,CCGGTGCA,0.225
22,TATGGTCA,-0.24
23,CCGGCAGG,0.244
24,CTCATATC,-0.0509
25,CCTTTGAG,-0.149

row,Sequence,PBM E-score
1,CCCTTCAG,-0.136
2,CACCGATA,0.0444
3,ATCTCAGA,-0.0812
4,AGTTATGG,-0.209
5,AATGCAGT,-0.162
6,CCATGTGC,-0.00984
7,AGCCAGGG,-0.22
8,ACTGGATG,-0.282
9,AGCCTCTC,-0.189
10,CCTGCGAC,-0.0924
11,CAGCAGCG,-0.141
12,CCACACCG,0.0242
13,AGTTTAAA,0.124
14,AGATGTTG,0.0107
15,ATGAGGGA,-0.254
16,ACAGTTAT,-0.0952
17,AGCTAGCA,-0.0474
18,AGGTCGGG,0.2
19,GCAGAAGC,-0.0858
20,GACGCTCA,-0.154
21,GACCCCAA,-0.101
22,AAGACATG,-0.157
23,CAGCGCAA,-0.117
24,GGCCCAAA,0.122
25,ACTGGACC,-0.00429

row,Sequence,PBM E-score
1,ATCATGAA,-0.126
2,GAATGTGC,-0.11
3,CGTAAGCA,-0.0963
4,AGATAAAC,0.00284
5,CAGTCCAG,-0.185
6,CGGGCCAG,0.131
7,CTTGGGGC,-0.131
8,AAGCGCTA,-0.0929
9,AAGCGTAT,-0.119
10,AATTAACT,-0.0555
11,CTCTACGC,-0.192
12,CAGCCTAC,-0.0798
13,CGCGGGCA,0.171
14,CCTCGCCG,0.0999
15,ACGGGCGC,0.0987
16,AAAGTCAG,-0.168
17,CGCATTAG,-0.0163
18,CTTACGAC,-0.147
19,CGTGCGAG,0.0424
20,AAAACAAG,-0.222
21,CAAACTGC,-0.0742
22,AGCACGTA,-0.0824
